Laboratory results from the CheMixHub viscosity set.
This continues a long series; more values of the same kind are listed elsewhere.

Experiment: xn = mol fraction of the nth substance listed
Conditions: 323.15 K, 101 kPa

CN(C)CCO + O
Conditions	viscosity [mPa·s]
x1 = 0.05	1.13
x1 = 0.1003	1.875
x1 = 0.1993	3.35
x1 = 0.2947	4.204
x1 = 0.3489	4.37
x1 = 0.4004	4.339
x1 = 0.453	4.193
x1 = 0.504	3.946
x1 = 0.6047	3.408
x1 = 0.7044	2.859
x1 = 0.8062	2.405
x1 = 0.9046	2.02
